Data reported in PubChem BioAssay (NCI).
More than one record can exist for a structure, and the calls need not agree.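 The test compound was applied at a single concentration to cells in 96-well plates for 48 hours, and percent growth was recorded.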 For part of its entries the source gives two or more results. This list holds those alone. How the source made its calls: active means growth percent below 10; inactive means the rest. An entry can have further records. These are repeated runs of one drug, at its own concentration, as given; each value is one run. Counts like (3×) stand for listed records that agree.

System: OVCAR-4 ovarian
Assay: NCI-60 one-dose screen, 48 h (100 = growth as untreated, 0 = no growth, -100 = all killed)

**Q.** How did the growth (0.25 µM, runs of 2021) turn out when `COc1cccc2c1C(=O)c1c(O)c3c(c(O)c1C2=O)C[C@@](O)(C(=O)CO)C[C@@H]3OC1CC(N)C(O)C(C)O1` (some centres not stated) was run?
**A.** inactive: 70.4, 74.2, 76.1, 78, 73.2, 70.6, 73.8, 76, 66.7, 65.3, 70.7, 83.9, 75, 91.4, 87.9, 87.7, 84.9, 97.5, 81.2, 81.6, 94.8, 90.4 (3×), 92.8, 94.7, 92.9, 97.2, 92.7, 91.9, 86.2, 83.8, 87, 83.1, 87.2, 86.1, 97.9, 93.1, 91.6, 91.1, 88.2, 76.6, 65.1, 77.6, 91.5, 72.7, 75.3, 87.3, 90.5, 84.7%

**Q.** And the growth (0.25 µM, runs of 2022)?
**A.** inactive: 67.4, 66.8, 86.8, 91.8, 43.2, 86.7, 66.7, 81, 87.6, 78.4, 74.2, 84.8, 69.2, 75.6, 72.1 (2×), 77.3, 98.9 (2×), 98.7, 93.5, 105, 111, 92.4 (2×), 92.8, 93.1, 83.8%

**Q.** What about the growth (25 µM, runs of 1991) of the same compound?
**A.** active: -35.9, -31.5, -22.5, -29.4, -57.6, -21, -51.2, -57.8, -22.9, -33.1, -20.7, -37.1, -16.4, -39.1, -34, -5.68, -9.36%

**Q.** What about the growth (25 µM, runs of 1992) of the same compound?
**A.** active: -19.6, -33.4, -14, -48.9 (2×), -15.3, -13.1, -15.6, -19.9, -33.1, -27.3, -56.6, -56.3, -60.1, -37.1, -24.5, 1.63, -17.8, 7.75, -10.2, 0.92, -36.8 (2×), -27.8, -12.6, -8.94, 2.02, -61.6, -26.9, -13.9, -33.5, -36 (3×), -33.8 (2×), -47.4 (2×), -8.15, -28.8, -34, -21.3, -19.8, -36.9, -27.7, -29.8 (2×), -23.9, -44.6, -50, -54.6, -52.8, -8.76, -43.6, -47.9, -41.1, -9.49, -33.6 (2×), -34.9, -43.5, -39.2, -57.3, -43, -61.7, -52.7, -71.9, -66, -67.5, -57.7, -59.3, -49.1, -41.7, -59.7, -15.8, -30.4, -49.7, -20.6, -43.4, -44.7, -55, -53.1, -42.2, -28.3, 3.28, -26.5 (2×), -40.9, -57.5, -57.2, -65.5, -39.9, -7.13, -56.2, -65.3, -35.9, -9.48, -55.5, -56.8, -58.4, -55.6, -42.7, -67.8, -71.8, -55.3, -4.55, -41.2, -36.7, -54.1, -52.3, -62.5%

**Q.** What about the growth (25 µM, runs of 1993) of the same compound?
**A.** active: -47.4, 9.75, -50, -45 (2×), -68.2, -41.3, -31.4, -34.9, -30.2, -41.9, -16.2, -17.2, -34.6, -28.4, -2.44, -18, -55.2, -32.8, -49.5, -59.2, -55.3, -17.7, -1.54, -25.1, -67, -23.7, -23.4, -22.8, -43.8, -22.6, -26.6, -21.5, -25.4, -40.3, -57.6, -40.6, -51.7, -56.3, -44.3, -18.8, -53.5, 4.14, -23.8, -46.6, -34.8% and inactive: 18%, 17.1%

**Q.** What about the growth (25 µM, runs of 1994) of the same compound?
**A.** active: -57.2, -54.7, -49.6 (2×), -36.8, -71.9, -29.2, -39.3, -46.5, -12.2, -29.8, -34.8, -17.7, -42.3, 0.693, -47.4, -61.7, -25.4, -41.3, -46, -69.4, 4.46, -30.1, -73.4, -50.8, -15.9, -55.7, 0.0639, -88.6, -40.3% and inactive: 111%, 37%

**Q.** What about the growth (25 µM, runs of 1995) of the same compound?
**A.** active: -41.2 (2×), -71.6, -46.7, -24.4, -42.5, -39.7, -52, -9.87, -33.1, -39, -45.5, -50.9, -57.5, -47.8, -27.4, -49.8, -43, -28.7, -42.8, -72.4, -39.4, -23.4, -37.3, -54.3, 7.56, -26.5, -31.5, 4.64, -28.1, -42.3, -43.8 (2×), -41.8, -26.2, -30.6, -47, -49% and inactive: 11.4%

**Q.** What about the growth (25 µM, runs of 1996) of the same compound?
**A.** active: -46.6, -7.3, -45.3, -11, -28.6, -44.6, -28.4, -30.3, -54.9, -28.1, -13.5, -29.8, -31.6, -10.6, -54.3, -52.5, -42.3, -14.9, -44.2, 1.12, -38.3, -49.3, 2.2, -20.2, -36.9, -48.7, -28, -52.3, -4.01, -24.3, -57.9, -34.3, -36.8, -41.7, -44.4, -63.9, -41.4, -12.5, -56, -47.5, -21.2, -56.4, -61.2, -58.2, -27.2, -39.3, -36.1, -27.3, -26.9, -26.5, -14.3, -14.8, -56.2% and inactive: 90.8%, 39.8%

**Q.** What about the growth (25 µM, runs of 1997) of the same compound?
**A.** active: -22.8, -56.6, -4.42, -30.6, -55.7, -58.7, -33.8, -62.6, -35.8, -24.2, -32.6, -49.9, -58.4, -53.1, -38, -35.4, -43, -40, -54.7, -44.4, -56.9, -42.6, -34.4, -35.9, -15.4, -22.9, -4.2, -16.5, -39.7, -18.7, -27.4, -38.3, -46.4, -34.7, -17.2, -7.19, -9.86, -41.9, -17.8, -26.6%

**Q.** And the growth (25 µM, runs of 1998)?
**A.** active: -4.61, -53.5, -4.55, -33.9, -2.72, -29.7, -35.9, -67.4, -45.6, -48.7, -47.3, -54.8, -58.5, -56.9, -5.7, -49.5, -42.5, -38.1, -33.4, -35.1, -43.9, -35% and inactive: 24.5%, 23.8%

**Q.** And the growth (25 µM, runs of 1999)?
**A.** active: -29.2, -47.6, -61.7, -55.8, -50 (2×), -4, -38.1, -75.3, -71.4, 1.29, 2.23, -100, 0.74, -63.5% and inactive: 17.4%

**Q.** And the growth (25 µM, runs of 2000)?
**A.** active: -61.5, -100, 0.439, -78.1%
